Laboratory results published in a compilation of properties of binary mixtures (doi:10.1007/s10953-013-0016-8).
The densities may have been worked out from excess volumes.

Assay: xn = mol fraction of the nth substance listed
Details: 100 kPa

CO + CCCC[n+]1ccn(C)c1.COS(=O)(=O)[O-]
x1 = 1
Details | mass density [kg/m3]
283.15 K | 800.4
288.15 K | 795.8
293.15 K | 791.2
298.15 K | 786.4
303.15 K | 781.7
308.15 K | 777.1
313.15 K | 772.4
318.15 K | 767.5
323.15 K | 763
328.15 K | 758.1
333.15 K | 753.2

CCCC[n+]1ccn(C)c1.COS(=O)(=O)[O-] + CO
Details | mass density [kg/m3]
283.15 K, x2 = 0 | 1217.2
283.15 K, x2 = 0.1482 | 1205.1
283.15 K, x2 = 0.4684 | 1161.8
283.15 K, x2 = 0.5833 | 1135.7
283.15 K, x2 = 0.6451 | 1118.1
283.15 K, x2 = 0.708 | 1092.9
283.15 K, x2 = 0.7535 | 1072.7
283.15 K, x2 = 0.8903 | 972.4
288.15 K, x2 = 0 | 1214
288.15 K, x2 = 0.1482 | 1201.6
288.15 K, x2 = 0.2877 | 1186
288.15 K, x2 = 0.4684 | 1158.1
288.15 K, x2 = 0.5833 | 1132.1
288.15 K, x2 = 0.6451 | 1114.5
288.15 K, x2 = 0.708 | 1089.4
288.15 K, x2 = 0.7535 | 1068.7
288.15 K, x2 = 0.946 | 898.6
293.15 K, x2 = 0 | 1210.8
293.15 K, x2 = 0.1482 | 1198
293.15 K, x2 = 0.395 | 1168.1
293.15 K, x2 = 0.4684 | 1154.4
293.15 K, x2 = 0.6451 | 1110.9
293.15 K, x2 = 0.708 | 1085.5
293.15 K, x2 = 0.7535 | 1064.8
293.15 K, x2 = 0.7941 | 1041.1
293.15 K, x2 = 0.8903 | 964.2
293.15 K, x2 = 0.946 | 894.1
298.15 K, x2 = 0 | 1207.7
298.15 K, x2 = 0.2877 | 1179
298.15 K, x2 = 0.395 | 1164.7
298.15 K, x2 = 0.4684 | 1151.3
298.15 K, x2 = 0.5833 | 1125.1
298.15 K, x2 = 0.6451 | 1107.3
298.15 K, x2 = 0.7535 | 1061.2
298.15 K, x2 = 0.7941 | 1037.5
298.15 K, x2 = 0.8903 | 960.1
303.15 K, x2 = 0 | 1204.5
303.15 K, x2 = 0.1482 | 1191.5
303.15 K, x2 = 0.2877 | 1175.8
303.15 K, x2 = 0.395 | 1161.4
303.15 K, x2 = 0.5833 | 1121.4
303.15 K, x2 = 0.708 | 1078.4
303.15 K, x2 = 0.7535 | 1057.6
303.15 K, x2 = 0.7941 | 1033.7
303.15 K, x2 = 0.8903 | 956.3
303.15 K, x2 = 0.946 | 885.7
308.15 K, x2 = 0.2877 | 1172.2
308.15 K, x2 = 0.395 | 1157.8
308.15 K, x2 = 0.4684 | 1144.1
308.15 K, x2 = 0.5833 | 1117.7
308.15 K, x2 = 0.708 | 1074.7
308.15 K, x2 = 0.7535 | 1053.7
308.15 K, x2 = 0.7941 | 1029.8
308.15 K, x2 = 0.8903 | 952
308.15 K, x2 = 0.946 | 881.3
313.15 K, x2 = 0 | 1197.8
313.15 K, x2 = 0.4684 | 1140.6
313.15 K, x2 = 0.6451 | 1096.5
313.15 K, x2 = 0.708 | 1070.9
313.15 K, x2 = 0.7535 | 1050
313.15 K, x2 = 0.7941 | 1026.1
313.15 K, x2 = 0.8903 | 948.1
313.15 K, x2 = 0.946 | 876.9
318.15 K, x2 = 0 | 1194.5
318.15 K, x2 = 0.1482 | 1180.9
318.15 K, x2 = 0.2877 | 1165.2
318.15 K, x2 = 0.395 | 1150.7
318.15 K, x2 = 0.4684 | 1136.9
318.15 K, x2 = 0.5833 | 1110.3
318.15 K, x2 = 0.6451 | 1092.8
318.15 K, x2 = 0.946 | 872.5
323.15 K, x2 = 0 | 1191.5
323.15 K, x2 = 0.1482 | 1177.8
323.15 K, x2 = 0.2877 | 1162.2
323.15 K, x2 = 0.395 | 1147.5
323.15 K, x2 = 0.4684 | 1133.7
323.15 K, x2 = 0.708 | 1063.7
323.15 K, x2 = 0.7535 | 1042.4
323.15 K, x2 = 0.7941 | 1018.4
323.15 K, x2 = 0.946 | 868.4
328.15 K, x2 = 0 | 1188.3
328.15 K, x2 = 0.1482 | 1174.4
328.15 K, x2 = 0.395 | 1144.1
328.15 K, x2 = 0.4684 | 1130.1
328.15 K, x2 = 0.5833 | 1103.5
328.15 K, x2 = 0.6451 | 1085.8
328.15 K, x2 = 0.708 | 1060.1
328.15 K, x2 = 0.7535 | 1038.7
328.15 K, x2 = 0.7941 | 1014.6
328.15 K, x2 = 0.8903 | 935.7
328.15 K, x2 = 0.946 | 863.9
333.15 K, x2 = 0 | 1185
333.15 K, x2 = 0.1482 | 1171.2
333.15 K, x2 = 0.2877 | 1155.2
333.15 K, x2 = 0.395 | 1140.7
333.15 K, x2 = 0.4684 | 1126.5
333.15 K, x2 = 0.5833 | 1100
333.15 K, x2 = 0.708 | 1056.3
333.15 K, x2 = 0.7535 | 1035
333.15 K, x2 = 0.7941 | 1010.8
333.15 K, x2 = 0.8903 | 931.5
333.15 K, x2 = 0.946 | 859.4
